# Measured values published in paper PMC4336329 (PLoS ONE, 2015).
# In all, about 310,000 compounds went through this assay and about 14,000 (4.5%) showed an effect of 50% or more. Effects have a minus sign here. The list shows a part of the results.
# Biological target: human ether-à-go-go-related gene (hERG) potassium channel (human, UniProt Q12809)
# Test: primary screen, population patch clamp on CHO cells stably expressing hERG
# 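Also: peak tail current of the secondary pulse compared with the same well before compound.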
# human ether-à-go-go-related gene (hERG) potassium channel, sequence (Q12809 whole entry, looked up): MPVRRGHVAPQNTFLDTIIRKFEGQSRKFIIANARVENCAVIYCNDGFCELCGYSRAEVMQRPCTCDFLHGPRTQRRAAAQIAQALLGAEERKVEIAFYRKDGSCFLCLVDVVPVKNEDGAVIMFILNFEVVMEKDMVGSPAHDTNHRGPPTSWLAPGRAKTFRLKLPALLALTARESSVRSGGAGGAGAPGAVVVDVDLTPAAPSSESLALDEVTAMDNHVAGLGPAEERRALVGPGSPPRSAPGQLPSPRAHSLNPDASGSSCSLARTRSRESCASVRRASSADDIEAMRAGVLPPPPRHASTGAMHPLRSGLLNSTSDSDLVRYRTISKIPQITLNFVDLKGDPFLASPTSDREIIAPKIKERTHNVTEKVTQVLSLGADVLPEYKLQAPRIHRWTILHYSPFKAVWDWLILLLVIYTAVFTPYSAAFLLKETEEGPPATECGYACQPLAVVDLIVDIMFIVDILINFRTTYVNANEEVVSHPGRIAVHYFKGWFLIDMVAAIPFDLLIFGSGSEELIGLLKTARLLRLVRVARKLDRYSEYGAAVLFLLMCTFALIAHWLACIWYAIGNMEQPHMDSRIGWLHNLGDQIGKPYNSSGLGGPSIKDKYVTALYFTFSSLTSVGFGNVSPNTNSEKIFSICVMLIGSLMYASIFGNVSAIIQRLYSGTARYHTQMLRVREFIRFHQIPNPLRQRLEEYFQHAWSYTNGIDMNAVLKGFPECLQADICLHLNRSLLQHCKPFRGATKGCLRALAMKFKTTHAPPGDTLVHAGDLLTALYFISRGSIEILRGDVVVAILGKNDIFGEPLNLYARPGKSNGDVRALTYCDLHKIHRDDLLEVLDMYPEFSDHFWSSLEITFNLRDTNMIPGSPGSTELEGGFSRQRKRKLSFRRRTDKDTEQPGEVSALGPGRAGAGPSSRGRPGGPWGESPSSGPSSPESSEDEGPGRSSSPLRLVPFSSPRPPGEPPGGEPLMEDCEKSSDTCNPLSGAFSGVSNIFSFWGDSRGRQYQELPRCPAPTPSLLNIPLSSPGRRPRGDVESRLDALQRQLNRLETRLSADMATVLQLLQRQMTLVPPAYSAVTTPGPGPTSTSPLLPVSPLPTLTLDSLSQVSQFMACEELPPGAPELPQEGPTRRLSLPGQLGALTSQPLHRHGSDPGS
row,SMILES,"hERG current change (%, negative = inhibition) at 10uM"
1,CCC(=O)N1CCN(c2ccc(NC(=O)COc3ccc(CC)cc3)cc2)CC1,-3.27%
2,NC(N)=Nc1nc(-c2ccccc2)c2ccccc2n1,-40.1%
3,Cc1ccc(C(=O)N2CCC(n3nccc3NC(=O)Nc3cccc(F)c3)CC2)cn1,5.74%
4,CCOc1ccc(OCc2ccc(C(=O)NCc3ccncc3)o2)cc1,-26.3%
5,CCN(C(=O)C(C)OC(=O)C1C(C(=O)OC)=C(C)NC(C)=C1C(=O)OC)c1ccccc1 (centres unmarked),6.24%
6,Clc1ccc(CN=C2Nc3ccccc3CS2)cc1,14.9%
7,COc1cccc(C(=O)NCCCNC(=O)c2ccccn2)c1,15%
8,CCOC(=O)C1CCN(C=Nc2cc(C)on2)CC1,18.1%
9,CCOC(=O)/C(=C\C=C\N1CCOCC1)C(C)=O,11.2%
10,COCCCNC(=O)C1CCCN(S(C)(=O)=O)C1 (centres unmarked),2%
11,Cc1ccc2oc(C(=O)Nc3ccc(S(=O)(=O)Nc4onc(C)c4C)cc3)cc(=O)c2c1,13.7%
12,CCOc1ccc(-n2nnnc2SCC(=O)N2CCOCC2)cc1,-0.317%
13,CC(C)NS(=O)(=O)c1ccc(CCC(=O)NCc2cccnc2)cc1,-4.63%
14,CN(C(=O)Cn1cc(C(F)(F)F)ccc1=O)c1c(N)n(Cc2ccccc2)c(=O)[nH]c1=O,19.3%
15,Cc1ccc(C(=O)NCC(=O)Nc2ccncc2)cc1C,1.6%
16,O=C(COC(=O)c1cccc(C(=O)OCC(=O)NC2CCCCC2)n1)NC1CCCCC1,-1.85%
17,COc1ccccc1NC(=O)C(C)Sc1nccn1C (centres unmarked),-4.96%
18,Cc1occc1-c1nnc(SCC(=O)NC2CCCCC2)o1,5.06%
19,CSc1ncccc1C(=O)OCc1ccccc1,10.1%
20,O=C(c1ccccc1Sc1c(Cl)cccc1[N+](=O)[O-])N1CCOCC1,-5.51%

row,SMILES,"hERG current change (%, negative = inhibition) at 10uM"
1,Cc1noc(NS(=O)(=O)c2ccc(NC(=O)c3ccoc3C)cc2)c1C,12.2%
2,CCSc1nnc(C)c(=O)n1COC(=O)c1ccc(S(=O)(=O)N2CCCC2)cc1,-6.38%
3,COc1ccc(C(=O)NC(C(=O)NCc2ccccc2OC)C(C)C)cc1 (centres unmarked),20.8%
4,CN(c1ccc(C(=O)Nc2ccc3c(c2)OCCO3)cc1)S(C)(=O)=O,3.76%
5,COC(=O)c1ccccc1NS(=O)(=O)c1cn(C)c(=O)n(C)c1=O,-4%
6,COc1ccc(OCC#CCN2CCCCCC2)cc1.O=C(O)C(=O)O,-16.1%
7,COc1ccc(C)cc1NC(=O)c1cc(-c2ccccc2)nc2c1cnn2C(C)C,5.86%
8,Cc1cc(/C=C(\C#N)C(=O)NCc2ccccc2)cc(C)c1O,15.7%
9,Oc1cc2c(cc1CN1CCN(c3ccccc3F)CC1)OCO2,-5.56%
10,O=c1c2ccccc2sc2ccc(Cl)cc12,17.9%
11,Cc1ccc(C)c(NC(=O)C(C)CC2COCCO2)c1 (centres unmarked),-12.1%
12,c1ccc(-n2nnnc2-n2cnc3ccccc32)cc1,-2.88%
13,Cc1ccc(S(=O)(=O)N/N=C/c2ccccc2F)cc1[N+](=O)[O-],16%
14,O=C(CCN1C(=O)/C(=C/c2ccccc2)SC1=S)NCCCN1CCOCC1,-24.8%
15,CC(C)NC(=O)CN1C(=O)c2ccccc2S1(=O)=O,16.5%
16,CCOc1ccccc1NC(=O)CSc1nnc(-c2ccco2)n1Cc1ccco1,-63.4%
17,COc1cc(OC)cc(C(=O)Nc2ccc(CN3CCCCC3)cc2)c1,-14.7%
18,Cc1ccc([N+](=O)[O-])cc1NC(=O)C1CCCC1,17.3%
19,COc1ccsc1NC(=O)OCc1ccc(Cl)cc1,-77.8%
20,COc1ccccc1N1CCN(CC(=O)Nc2ccc(-n3cnnn3)cc2)CC1,-28.9%

row,SMILES,"hERG current change (%, negative = inhibition) at 10uM"
1,O=C(NCC1CCCO1)c1cc(-c2ccccc2)on1 (centres unmarked),-4.98%
2,COc1cc(C(=O)Nc2ccc(C#N)cc2)c([N+](=O)[O-])cc1OC,-20.3%
3,COc1ccccc1NC(=S)NC(=O)CC(C)C,-6.46%
4,Cc1cc(C)c(NC(=O)CN(C)C(=O)CNC(=O)c2cccs2)c(C)c1,-2.53%
5,CCOc1nc(N2CCOCC2)nc(C)c1[N+](=O)[O-],-19.9%
6,CCOC(=O)N1CCN(C(=O)c2ccc3ccccc3c2)CC1,-2.29%
7,CCN(CC)CCn1c(NCc2ccc(OC)cc2)nc2ccccc21,-65.5%
8,COc1ccc(NC(=O)Cn2c(C(C)C)nc(C)cc2=O)cc1Cl,6.64%
9,Cc1c([N+](=O)[O-])cc(C(=O)Oc2cccc(C(=S)N3CCOCC3)c2)cc1[N+](=O)[O-],11.8%
10,Cc1ccc2oc(-c3ccc(NC(=O)c4cccnc4)cc3)nc2c1,2.13%
11,CCOC(=O)C1=C(C)N=C2SC(C)C(=O)N2C1c1ccc(OC(C)=O)c(OC)c1 (centres unmarked),9.41%
12,Cc1cc(C(=O)C(C)OC(=O)c2ccc(NC(=O)CC#N)cc2)c(C)n1-c1ccccc1 (centres unmarked),20.8%
13,Cc1ccc(OCC(=O)N2CCC(N3CCCCCC3)CC2)cc1,-28.3%
14,O=c1c(Cc2c(F)cccc2Cl)c(O)ccn1C1CCCCCC1,11%
15,O=C(O)c1cnccn1,10.1%
16,CCOC(=O)C1=C(N)N2C(=O)C(C)SC2=C(C(=O)OC)C1c1ccccc1OC (centres unmarked),9.15%
17,COc1cc(C(NC(C)=O)NC(C)=O)ccc1OCc1ccccc1,20.8%
18,CC1CCC(NC(=O)CCC(=O)N2CC(C)Oc3ccccc32)CC1 (centres unmarked),-0.469%
19,O=C1CC(c2ccccc2)CC(=O)C1CS(=O)(=O)c1ccccc1 (centres unmarked),18.1%
